{"source": "the supplement of paper PMC7266297", "key": {"KB-3-1": {"test_system": "KB-3-1", "test": "growth inhibition relative to DMSO control (SRB); higher = more growth inhibition", "settings": "1 µM; 72 h"}, "KB-V1": {"test_system": "KB-V1", "test": "growth inhibition relative to DMSO control (SRB); cervical cancer cells: KB-3-1 is the parent and KB-V1 overexpresses MDR1; SRB is the sulforhodamine B stain; higher = more growth inhibition", "settings": "1 µM; 72 h"}}, "note": "Where a name gives a salt, the structure may show the parent alone. Some of the results follow. Many values rest on one well or one pass, so single values are uncertain.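 Also: Read-out is SRB optical density at 490 nm, with the control being wells given 0.5% DMSO vehicle, and compound added one day after cells were plated.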"}
{"smiles": "CC(C)(C)c1cc(C(C)(C)C)c(NC(=O)c2c[nH]c3ccccc3c2=O)cc1O", "note": "[Ivacaftor (VX-770)]", "values": [{"measurement": "growth inhibition", "setting": "KB-3-1", "result": 38, "unit": "%"}, {"measurement": "growth inhibition", "setting": "KB-V1", "result": 52.6, "unit": "%"}]}
{"smiles": "O=C(Nc1cccc(Cl)c1)Nc1ncc(CCNc2ncnc3ccsc23)s1", "note": "[SNS-314 Mesylate]", "values": [{"measurement": "growth inhibition", "setting": "KB-3-1", "result": 67.7, "unit": "%"}, {"measurement": "growth inhibition", "setting": "KB-V1", "result": 67.3, "unit": "%"}]}
{"smiles": "CC(C)N(CC[C@H](c1ccccc1)c1cc(CO)ccc1O)C(C)C", "values": [{"measurement": "growth inhibition", "setting": "KB-3-1", "result": "< 0", "unit": "%"}, {"measurement": "growth inhibition", "setting": "KB-V1", "result": 3.12, "unit": "%"}]}
{"smiles": "O=S(=O)(c1ccccc1)N(CC(F)(F)F)c1ccc(C(O)(C(F)(F)F)C(F)(F)F)cc1", "values": [{"measurement": "growth inhibition", "setting": "KB-3-1", "result": 25.6, "unit": "%"}, {"measurement": "growth inhibition", "setting": "KB-V1", "result": 24.5, "unit": "%"}]}
{"smiles": "C[C@@H]1CCO[C@H]2Cn3cc(C(=O)NCc4ccc(F)cc4F)c(=O)c(O)c3C(=O)N12", "values": [{"measurement": "growth inhibition", "setting": "KB-3-1", "result": "< 0", "unit": "%"}, {"measurement": "growth inhibition", "setting": "KB-V1", "result": "< 0", "unit": "%"}]}
{"smiles": "CCCS(=O)(=O)Nc1ccc(F)c(C(=O)c2c[nH]c3ncc(Cl)cc23)c1F", "values": [{"measurement": "growth inhibition", "setting": "KB-3-1", "result": 31.1, "unit": "%"}, {"measurement": "growth inhibition", "setting": "KB-V1", "result": 32.1, "unit": "%"}]}
{"smiles": "Cc1ccc(S(=O)(=O)OCC(=O)Nc2ccc(C(=O)O)c(O)c2)cc1", "values": [{"measurement": "growth inhibition", "setting": "KB-3-1", "result": 34.1, "unit": "%"}, {"measurement": "growth inhibition", "setting": "KB-V1", "result": 35.1, "unit": "%"}]}
{"smiles": "CC(=O)Oc1ccccc1C(=O)O", "note": "[Aspirin]", "values": [{"measurement": "growth inhibition", "setting": "KB-3-1", "result": "< 0", "unit": "%"}, {"measurement": "growth inhibition", "setting": "KB-V1", "result": 0.244, "unit": "%"}]}
{"smiles": "Cc1ccc(NCCCc2ccccc2)c(N)c1", "values": [{"measurement": "growth inhibition", "setting": "KB-3-1", "result": "< 0", "unit": "%"}, {"measurement": "growth inhibition", "setting": "KB-V1", "result": 6.64, "unit": "%"}]}
